Here are results for 1 substance from ChEMBL document CHEMBL3822376, “Potent anticholinesterasic and neuroprotective pyranotacrines as inhibitors of beta-amyloid aggregation, oxidative stress and tau-phosphorylation for Alzheimer's disease” (Eur J Med Chem, 2016).

Data set [1] deals with COC(=O)C1=C(C)Oc2nc3c(c(N)c2C1c1cc2ccc(OC)cc2nc1Cl)CCCC3. Conditions: Electrophorus electricus; 0.1 uM.
The test system is the same in data set [2]. The note with it: Electrophorus electricus; 1 uM.
Data set [3] has the same test system. The note with it: Electrophorus electricus; 0.05 uM.
Data set [4] has the same test system. The note with it: Electrophorus electricus; 0.01 uM.
Data set [5] has the same test system. The note with it: Electrophorus electricus; 5 uM.
The test system is the same in data set [6]. The note with it: Electrophorus electricus; 0.5 uM.

As to “Acetylcholinesterase (Electrophorus electricus) (no sequence given)”, the Vmax in data set [1] turned out to be 0.083 deltaOD/min; in data set [2] it was 0.043 deltaOD/min; in data set [3] it was 0.084 deltaOD/min; in data set [4] it was 0.085 deltaOD/min; in data set [5] it was 0.024 deltaOD/min; in data set [6], 0.059 deltaOD/min.
